According to the supplement of paper PMC10600219:
Counter-ions that a name gives are not always drawn. Whole data set: some 2,800 compounds, median “cell viability relative to vehicle” near 0.98, cut for the lowest 2% near 0.45. Some of the results follow.

The compounds below were run on NCI-H2228 alectinib-DTP (assay: cell viability relative to vehicle (fraction of vehicle); NCI-H2228 is an ALK-positive lung cancer line and DTP means drug-tolerant persister; higher = less growth inhibition). Conditions: 100 nM; treatment time 6 days.
In short: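 Values give cell viability as a fraction of vehicle-treated cells. Parental and drug-tolerant persister NCI-H2228 cells (persisters made with 1000 nM of a targeted drug for 13 days) were exposed in 384-well plates to the 3114-agent TargetMol anti-cancer compound library at 100 nM, with DMSO as vehicle. ATP was then read after 6 days by the CellTiter-Glo 3D Cell Viability Assay.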

Row | SMILES | cell viability
1 | C=CC[C@@H]1/C=C(\C)C[C@H](C)C[C@H](OC)[C@H]2O[C@@](O)(C(=O)C(=O)N3CCCC[C@H]3C(=O)O[C@H](/C(C)=C/[C@@H]3CC[C@@H](O)[C@H](OC)C3)[C@H](C)[C@@H](O)CC1=O)[C@H](C)C[C@@H]2OC [Tacrolimus] | 0.731
2 | CC(C)=CCc1cc(-c2coc3cc(O)ccc3c2=O)ccc1O [Neobavaisoflavone] | 1.22
3 | CC(C)N1CCN(c2ccc(OCC3COC(Cn4cncn4)(c4ccc(Cl)cc4Cl)O3)cc2)CC1 (configuration not stated) [Terconazole] | 1.04
4 | CN1C2CCCC1CC(NC(=O)c1nn(C)c3ccccc13)C2 (configuration not stated) [Granisetron hydrochloride] | 1.05
5 | O=S(=O)(CCC(F)=C(F)F)c1ncc(Cl)s1 [Fluensulfone] | 0.998
6 | COc1cc2c(cc1OC)[C@@H](Cc1ccc(O)c(Oc3cc4c(cc3OC)CCN(C)[C@@H]4Cc3ccc(O)cc3)c1)N(C)CC2 [Liensinine] | 1.08
7 | CC(=O)O/N=C1\C(=O)N(Cc2cc(Cl)ccc2Cl)c2ccc(Cl)cc21 | 1.14
8 | CCN(CC)CC#CCOC(=O)C(O)(c1ccccc1)C1CCCCC1 (configuration not stated) [Oxybutynin hydrochloride] | 1.1
9 | O=C(Cc1cccc(OC(F)(F)F)c1)Nc1ccc(CCCCc2nnc(NC(=O)Cc3ccccn3)s2)nn1 | 0.819
10 | Cc1ncc([N+](=O)[O-])n1CCO [Metronidazole] | 1.08
11 | CNC(=O)Nc1cc(Oc2cncc(C)c2)c(-c2ccc(OCC(C)(C)O)nc2)cn1 | 0.91
12 | Cc1nc(Nc2ccc(F)cc2)nc(N2CCc3ccccc3C2C)c1C (configuration not stated) [Revaprazan hydrochloride] | 0.852
13 | CCN(Cc1ccncc1)C(=O)C(CO)c1ccccc1 (configuration not stated) [Tropicamide] | 1.03
14 | CC(C)=CCc1c(O)cc2oc3cc(O)c(O)c(CC=C(C)C)c3c(=O)c2c1O [gamma-Mangostin] | 0.878
15 | C[C@H]1O[C@@H](O[C@H]2CC[C@@]3(C)[C@@H](CC[C@]4(C)[C@@H]3C=C[C@]35OC[C@@]6(CCC(C)(C)C[C@H]63)[C@@H](O)C[C@]54C)[C@]2(C)CO)[C@H](O)[C@@H](O[C@@H]2O[C@H](CO)[C@@H](O)[C@H](O)[C@H]2O)[C@H]1O [Saikosaponin A] | 0.961
16 | C[C@@H]1C(=O)O[C@H](C)[C@H]1C[C@@H](O)[C@](C)(O)[C@H]1CC[C@@]2(O)C3=CC(=O)[C@@H]4C[C@@H](O)[C@@H](O)C[C@]4(C)[C@H]3CC[C@]12C [Cyasterone] | 0.907
17 | C[C@@]1(CO)C[C@@H](O)C[C@@]2(C)[C@@H]3CC[C@](C)([C@@H](O)CO)C=C3CC[C@H]12 [Kirenol] | 1.16
